In PubChem BioAssay AID463173 (ICCB-Longwood Screening Facility, Harvard Medical School, 2010) one finds survival data, which are given here for 88 compounds.

The whole screen tested about 52,000 compounds, of which about 4,300 (8.3%) were called active. No stated cut-off is given here; in the data, active means survival mostly below about 52% (no sharp cut-off); inactive means mostly above about 56%. This is one part of the list.

This assay relates to DeltatarO mutant. The experiment in a line: S. aureus survival, RN4220 and DeltatarO strains – OD600, teichoic acid synthesis inhibitors, primary screen (AID 463173). Conditions: S. aureus RN4220 wild type/DeltatarO growth, OD600, 18 h, stronger effect = lower value, screened at 18.75 µg/mL (by protocol).
For the compound `CN(C)c1ccc(-c2nc3ccccn3c2NC2CCCC2)cc1`, the survival was inactive: 83%.
With `CCCC1=Nc2cc(C(=O)NCCOC)ccc2Sc2ccccc21`, the survival was inactive: 113%.
The figure for `CCCOc1ccccc1C1C(C(=O)Nc2ccccc2)=C(C)Nc2nnnn21` (stereo not drawn) is inactive: 140%; for `CCc1ccc(N(CC)C(=O)Cn2cnc3sc(C)c(S(=O)(=O)N4CCN(c5ncccn5)CC4)c3c2=O)cc1` it is inactive: 71%; for `Cc1cccc(S(=O)(=O)c2cn(C)c3cc(N4CCC(C)CC4)c(F)cc3c2=O)c1` it is inactive: 91%.
On to `Cc1[nH]c(=O)[nH]c(=O)c1CSCC(=O)O`, for which the survival was inactive: 89%.
For the compound `CCC(=O)N1c2ccc(S(=O)(=O)CCC(=O)NCc3cccc(OC)c3)cc2CC1C` (stereo not drawn), the survival was inactive: 102%.
Consider `Cc1cccc2sc(N(Cc3cccnc3)C(=O)C3COc4ccccc4O3)nc12` (stereo not drawn), for which the survival is inactive: 67%.
With `COc1ccc(-c2nc(Cn3c(SCc4ccccc4F)nc4cccnc43)c(C)o2)cc1` the figure was inactive: 69%; with `Cc1ccc(CNC(=O)CN2C(=O)C3(SCC(=O)N3c3ccc(F)c(F)c3)c3ccccc32)cc1` (stereo not drawn), inactive: 75%; with `CCOC(=O)C(Cc1ccccc1)NC(=O)CCc1c(C)nc2c(c(C)nn2-c2ccc(C)c(C)c2)c1C` (stereo not drawn), inactive: 66%.
Turning to `COC(=O)c1ccccc1NC(=O)C1CCCN(c2nnc(C)c3c(C)n(-c4ccccc4)nc23)C1` (stereo not drawn), the survival is inactive: 79%.
Take `COC(=O)c1c(NC(=O)c2ccc(S(=O)(=O)N(C)C3CCCCC3)cc2)sc2c1CCN(C)C2`: the survival is inactive: 99%.
With `COc1ccc(OC)c(NC(=O)C2C3C=CC(C3)C2C(=O)NCc2cccnc2)c1` (stereo not drawn) the figure was inactive: 106%; with `CC1=C(C#N)c2nc(N)c(C#N)c(C)c2/C1=C\c1cccnc1`, inactive: 92%; with `O=C(CN1C(=O)CCc2cc(S(=O)(=O)N3CCCCC3)ccc21)NCc1ccc(Cl)cc1`, inactive: 78%.
The figure for `CCc1ccc(NC(=O)CSc2ncc(S(=O)(=O)c3cc(C)ccc3C)c(=O)[nH]2)cc1` is inactive: 59%.
With `COc1ccc(CC(=O)NC2CC(=O)N(c3ccc(C)c(C)c3)C2)cc1OC` (stereo not drawn) the figure was inactive: 63%; with `O=C(Cn1c(=O)oc2cc(S(=O)(=O)N3CCCCC3)ccc21)NCc1ccc(F)cc1`, inactive: 109%; with `CC1CCN(c2nc3ccc(C(=O)NCCc4ccc(S(N)(=O)=O)cc4)cc3s2)CC1`, inactive: 98%.
Turning to `CC1Cc2ccccc2N1C(=O)c1cc2sccc2n1Cc1ccc(F)cc1` (stereo not drawn), the survival is inactive: 98%.
On to `CCn1c(SCC(=O)c2ccccc2)nnc1-c1cccc(Cl)c1`, for which the survival is active: 39%.
For the compound `CCc1c(CN2CCN(c3ccccc3F)CC2)csc1C`, the survival is active: 32%.
The figure for `CN(C)c1ccc2c(c1)S(=O)(=O)c1cc(N(C)C)ccc1C2=O` is inactive: 75%; for `O=C(Cn1c(-c2cccs2)cc2cc(F)ccc21)NCCCN1CCN(c2ccc(F)cc2)CC1` it is inactive: 89%.
In the case of `Cc1ccc(/C=C/c2onc(C)c2S(=O)(=O)N2CCC(C(=O)NCc3ccc(OC(C)C)cc3)CC2)cc1`, the survival was inactive: 69%.
With `COc1ccc(-c2c(C)c3ccc(O)c(CN4CCCC4)c3oc2=O)cc1` the figure was inactive: 91%; with `COc1cccc(CNCCSc2nnnn2-c2ccccc2)c1OC`, inactive: 51%; with `Cc1ccc(S(=O)(=O)NCCSc2nnc3nc(C)cc(C)n23)cc1`, inactive: 67%.
For the compound `Cc1ccc(C)c(N2CCN(C(=O)CS(=O)(=O)c3cccc4nsnc34)CC2)c1`, the survival is inactive: 98%.
The figure for `COc1ccc(OCC(=O)NCC(c2ccc(OC)cc2)N2CCOCC2)cc1` (stereo not drawn) is inactive: 98%; for `Cc1cc(NC(=O)c2cnc3c(-c4ccccc4)c(C)nn3c2C)ccc1Br` it is inactive: 100%.
Consider `Cc1cc(NC(=O)C(C)(C)C)cc(-c2nc3ncccc3o2)c1O`, for which the survival is inactive: 78%.
As for `Cc1cccc(N2CCN(C(=O)CN3C(=O)COc4ccc(S(=O)(=O)N5CCCC5)cc43)CC2C)c1` (stereo not drawn), the survival is inactive: 77%.
Consider `CCOc1ccc(-n2nc(CO)c(C(=O)NCC(C)O)n2)cc1` (stereo not drawn), for which the survival was active: 39%.
On to `COc1ccc(OCCn2nnc3sc4c(c3c2=O)CCCC4)cc1`, for which the survival is inactive: 83%.
With `COc1ccc(N2CCN(c3ncnc4c3nnn4C)CC2)cc1` the figure was active: 0%; with `COCCn1c(N)cc(=O)[nH]c1=S`, inactive: 95%; with `Cc1ccc(-c2nc(CS(=O)CC(=O)NCCc3ccc(Cl)cc3)c(C)o2)cc1` (stereo not drawn), inactive: 77%.
With `CC(CNC(=O)CCCn1c(=O)c2cccn2c2ccc(F)cc21)c1ccccc1` (stereo not drawn) the figure was active: 35%; with `Cc1cccc(C(=O)NNc2ncnc3c2cnn3-c2ccc(C)c(Cl)c2)c1`, inactive: 57%; with `COc1cc(NC(=O)C2Cc3ccccc3N2C(=O)c2ccccc2)cc(OC)c1` (stereo not drawn), inactive: 67%.
With `O=C(CSc1ncc2c(n1)-c1ccccc1N(Cc1ccc(Cl)cc1)S2(=O)=O)c1ccccc1` the figure was inactive: 144%.
Take `Cc1nnnn1CCC(=O)NC(C)c1ccccc1` (stereo not drawn): the survival was inactive: 84%.
On to `CCOc1ccccc1Nc1sc(C(=O)c2ccc(Cl)cc2)c(N)c1S(=O)(=O)c1ccccc1`, for which the survival is active: 25%.
With `Cc1cccc(N2CCN(C(=O)c3ccc4c(c3)N(Cc3cccc(Cl)c3)C(=O)c3ccccc3S4(=O)=O)CC2)c1C` the figure was inactive: 106%; with `CCN(Cc1ccccc1)C(=O)Cn1ncc2c(=O)oc3ccc(C)cc3c21`, inactive: 89%.
The figure for `CCOc1ccc(NC(=O)CCc2nnc3n(C)c(=O)c4sccc4n23)cc1` is inactive: 194%; for `CCOC(=O)c1c(C)[nH]c(C)c1S(=O)(=O)NCC(=O)NCc1ccccc1C` it is inactive: 126%.
For `CCOc1ccccc1CNS(=O)(=O)c1cc(-c2onc(C)c2C)ccc1OC`, the survival was inactive: 81%.
Regarding `CCOC(=O)C1CCN(c2ncnc3c2c(-c2ccccc2)cn3-c2ccc(Cl)cc2)CC1`, the survival was inactive: 71%.
With `Cc1ccc(NC(=O)Cn2c(=O)n(CCCCC(=O)NCc3ccc4c(c3)OCO4)c(=O)c3ccccc32)cc1` the figure was inactive: 72%; with `CCC(=O)N1c2ccccc2CC1C(=O)N1CCN(c2ccccc2F)CC1` (stereo not drawn), inactive: 80%; with `N#Cc1c(C(F)(F)F)cc(-c2cccs2)nc1SCc1ccccc1F`, inactive: 48%.
With `CCOc1ccccc1Oc1nc(C)nc2c1oc1ccccc12` the figure was inactive: 124%; with `Clc1ccccc1CSc1nc(NCCc2ccccc2)c2ccccc2n1`, inactive: 66%.
Consider `Cc1ccc(Cl)cc1Nc1nn2c(=O)c3ccc(C(=O)NC(C)c4ccccc4)cc3nc2s1` (stereo not drawn), for which the survival was inactive: 105%.
The figure for `Cc1ccc(Cl)cc1N1CCN(C(=O)CCS(=O)(=O)c2ccc3c(c2)oc(=O)n3C)CC1` is inactive: 83%; for `COc1ccccc1CNC(=O)CCc1c(C)nn(-c2ccc(N3CCCCC3)nn2)c1C` it is inactive: 90%; for `Cc1ccc(S(=O)(=O)C(CNS(=O)(=O)c2ccc(F)c(C(F)(F)F)c2)c2ccco2)cc1` (stereo not drawn) it is inactive: 102%.
Regarding `CCC(C(=O)NC1CCCCC1)n1c(SCc2cccc(F)c2)nc2ccncc21` (stereo not drawn), the survival was inactive: 81%.
Consider `CC1(C)CC(CC#N)(Cc2ccccc2)CCO1` (stereo not drawn), for which the survival was inactive: 93%.
`COc1ccccc1NC(=O)Cn1ccn(-c2cc(C)cc(C)c2)c(=O)c1=O`: the survival is inactive: 55%.
The figure for `CC(CNC(=O)C1CCN(C(=O)c2cc3sccc3n2C)CC1)c1ccccc1` (stereo not drawn) is inactive: 66%.
Consider `O=C(NCc1ccc2c(c1)OCO2)C1CCN(c2ncccn2)CC1`, for which the survival is inactive: 88%.
As to `CCOc1ccc(CNCc2c(C(=O)O)n(Cc3ccccc3C)c3cc(OC)ccc23)cc1OC`, the survival was inactive: 106%.
Regarding `Cc1ccc2oc(-c3ccc(C)c(NC(=O)c4ccc(-c5ccccc5[N+](=O)[O-])o4)c3)nc2c1`, the survival was inactive: 68%.
The figure for `CCOc1ccc(S(=O)(=O)N(CC(=O)Nc2ccc3c(c2)OCO3)c2ccc(C)cc2)cc1` is inactive: 50%; for `COC(=O)c1ccc2nc(C)cc(Nc3cccc(Cl)c3C)c2c1` it is inactive: 153%.
`COCC(=O)Nc1c(C(=O)Nc2ccc(C)cc2)oc2ccccc12`: the survival was inactive: 86%.
With `Cc1ccc(NC(c2nnc(-c3ccccc3)o2)c2ccccc2F)c(Cl)c1` (stereo not drawn) the figure was inactive: 85%; with `Cc1ccc(Nc2nc(C(=O)N3CCC(C(=O)NCCN4CCOCC4)CC3)cs2)cc1`, inactive: 89%.
In the case of `Cc1ccc2onc(CNC(=O)N3CCN(c4cccc(C(F)(F)F)c4)CC3)c2c1`, the survival is inactive: 65%.
With `CCN(CC)S(=O)(=O)c1ccc(N2CCCCS2(=O)=O)cc1` the figure was inactive: 75%; with `Cc1ccc(CNC(=O)CN2C(=O)CCc3cc(S(=O)(=O)N4CCCCC4)ccc32)cc1`, inactive: 84%.
For the compound `CCn1cc(S(=O)(=O)c2ccc(Cl)cc2)c(=O)c2cc(F)c(N3CCOCC3)cc21`, the survival is inactive: 83%.
As for `COc1cc(CN(C(=O)c2ccc(Cl)cc2)C2CCS(=O)(=O)C2)cc(OC)c1OC` (stereo not drawn), the survival was inactive: 69%.
As to `COC(=O)/C(C#N)=C\c1c[nH]c2ccccc12`, the survival was inactive: 94%.
Regarding `CCOc1ccc(-n2c(=O)c3c(C)c(C(=O)N(C)C)sc3n(Cc3cc(C)ccc3C)c2=O)cc1`, the survival was active: 0%.
As for `Cc1ccc(S(=O)(=O)C(CNC(=O)C(=O)NCc2ccc(Cl)cc2)c2ccco2)cc1` (stereo not drawn), the survival is inactive: 109%.
With `CCOc1ccc(-c2nc3cc(NC(=O)COc4cccc(C)c4)ccc3o2)cc1` the figure was inactive: 116%.
Take `CN(C(=O)CSc1nc2ccccc2n1Cc1ccccc1C#N)c1ccccc1`: the survival is inactive: 72%.
For the compound `CCCC(OC(=O)CN1C(=O)COc2ccccc21)C(=O)NC1CCCC1` (stereo not drawn), the survival was inactive: 85%.
On to `CCOc1ccccc1CNC(=O)c1oc2ccc3c(c2c1C)C(=O)CC(C)(C)O3`, for which the survival was inactive: 66%.
The figure for `O=c1c2sc3ccccc3c2n(Cc2ccc(F)cc2Cl)c(=O)n1Cc1ccccc1` is inactive: 91%.
The figure for `FC(F)(F)C(F)(F)C(F)(F)c1nnc2ccc(N3CCOCC3)nn12` is inactive: 97%.
For `Cc1cc(C)c(NS(=O)(=O)c2ccc(-c3coc(C)n3)cc2)c(C)c1`, the survival was inactive: 94%.
With `COc1cc(C(=O)NCc2nc3cccnc3n2Cc2ccc(C)cc2)cc(OC)c1OC` the figure was inactive: 88%.
